Hit rate of the full screen: of about 200,000 compounds, about 4,500 (2.2%) were called active. This list was built around the results that the source calls inconclusive (neither active nor inactive); the mix of calls is not that of the screen. The call rests on the fitted dose curve; in most records, active means well fitted inhibition curve with a large enough effect; inconclusive means small, poorly fitted or top-dose-only effect, or effect the other way; inactive means flat fitted curve, though single readings scatter. A potency beside an inconclusive call is a rough fit, not a confirmed value.
Target: Cruzipain (Trypanosoma cruzi) (UniProt P25779)
Chain of UniProt P25779 (P25779 whole entry, looked up): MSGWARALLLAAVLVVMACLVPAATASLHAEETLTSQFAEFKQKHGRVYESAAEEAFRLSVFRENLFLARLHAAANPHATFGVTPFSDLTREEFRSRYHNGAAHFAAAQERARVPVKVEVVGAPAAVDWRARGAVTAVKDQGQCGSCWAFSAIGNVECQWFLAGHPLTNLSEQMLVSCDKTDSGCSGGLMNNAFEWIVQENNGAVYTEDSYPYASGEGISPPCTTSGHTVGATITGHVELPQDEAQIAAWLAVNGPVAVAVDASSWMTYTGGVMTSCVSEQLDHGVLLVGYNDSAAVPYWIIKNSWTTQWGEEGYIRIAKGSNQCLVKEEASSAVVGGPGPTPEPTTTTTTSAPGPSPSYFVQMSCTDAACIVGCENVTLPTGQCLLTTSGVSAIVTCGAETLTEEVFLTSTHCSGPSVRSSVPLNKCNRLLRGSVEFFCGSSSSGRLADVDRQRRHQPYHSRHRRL
Test: qHTS Assay for Promiscuous and Specific Inhibitors of Cruzain (without detergent); further: nearly all actives have a fitted effect of over 40% in size;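 on max response, negative = inhibition: plate controls were enzyme without inhibitor for no effect and buffer without enzyme for full effect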
Conditions: purified cruzain, Z-FR-AMC fluorescence, no detergent
Outline: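 Purified cruzain at 1.5 nM, pre-incubated 15 min with compound at room temperature in 100 mM sodium acetate pH 5.5, 5 mM DTT, 0.00005% Triton X-100. Reaction started with 2 uM Z-FR-AMC; AMC fluorescence increase over 60 s gives rate.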
Potency means the concentration at half of the fitted maximal effect; tags describe the fitted curve by direction and shape.

Compound	max response, negative = inhibition	Potency
Cc1ccccc1NC(=O)CSc1nc(N2CCCCC2)nc(N2CCCCC2)n1	inactive: -0.842%	
Brc1cc2c(cc1Cn1c(-c3cncs3)nc3ccccc31)OCO2		inconclusive: 39.8 µM [inhibitor, single point]
COC(=O)c1sc(NC(=O)CSc2nncs2)c(C(=O)OC)c1C		inconclusive: 39.8 µM [activator, single point]
COCc1c(C(=O)OCc2nc(N)nc(Nc3ccccc3C)n2)oc2ccccc12		inconclusive: 39.8 µM [activator, single point]
CCCCOc1ccc(-c2nc(/C=N/c3nccs3)c(O)o2)cc1		inconclusive: 15.8 µM [inhibitor, single point]
CCn1c(CC(=O)Nc2ccc(C)cc2)nnc1SCC(=O)Nc1nc(C)cs1		inconclusive: 39.8 µM [inhibitor, single point]
Cc1cccc(N(CC(O)CON=C2c3ccccc3-c3ccccc32)S(C)(=O)=O)c1 (stereo not drawn)		inconclusive: 31.6 µM [activator, single point]
CCOc1ccccc1NC(=O)CC1Nc2cc(C)c(C)cc2NC1=O (stereo not drawn)		inconclusive: 31.6 µM [inhibitor, single point]
COc1ccc(OC)c(S(=O)(=O)NCCS(=O)(=O)N2CCN(c3ccccc3)CC2)c1		inconclusive: 39.8 µM [activator, single point]
COc1ccc(Nc2oc(COc3ccccc3F)nc2C#N)cc1		active: 25.1 µM
Cc1ccc(-c2nnc3ccc(SCC(=O)Nc4cc(C)on4)nn23)cc1		inconclusive: 39.8 µM [activator, single point]
N#Cc1nc(-c2ccc(COc3ccc(Cl)cc3)o2)oc1N1CCC(C(N)=O)CC1		inconclusive: 39.8 µM [activator, single point]
O=C(Nc1cccc(C(F)(F)F)c1)c1cccnc1N1CCN(c2ccccc2)CC1		inconclusive: 31.6 µM [activator, single point]
COc1ccc(OC)c(C2=NS(=O)(=O)N(C)C(C(=O)Nc3ccc(F)cc3F)=C2)c1	inactive: 5.56%	
Cc1cccn2c(=O)c3cc(C(=O)NCC4CCCO4)c(=N)n(Cc4cccnc4)c3nc12 (stereo not drawn)		inconclusive: 31.6 µM [inhibitor, single point]
COc1ccc(C2c3c(n(C)c4ccccc34)C(=O)N2CC(=O)Nc2cccc(Cl)c2)cc1 (stereo not drawn)		inconclusive: 31.6 µM [inhibitor, single point]
COc1cccc(C2C(C(=O)c3cc4cccc(OC)c4o3)=C(O)C(=O)N2c2cc(C)on2)c1OC (stereo not drawn)		inconclusive: 39.8 µM [activator, single point]
COc1ccc2c(C)cc(SCC(=O)Nc3ccc(Cl)cn3)nc2c1		inconclusive: 39.8 µM [inhibitor, single point]
COc1ccc(CNC(=O)c2ccc(-c3nc(CSc4ccc(C)cc4)c(C)o3)cc2)c(OC)c1	inactive: 2.5%	
CNC(=O)c1ccc2c(c1)N(Cc1cc(C)ccc1C)C(=O)c1ccccc1S2		inconclusive: 31.6 µM [activator, single point]
COc1ccc2cc3cc(C(=O)NCC4CCCO4)oc3nc2c1 (stereo not drawn)		inconclusive: 15.8 µM [activator, partial curve]

Compound	max response, negative = inhibition	Potency
O=C(CN1C(=O)CC(c2ccccc2)=Nc2ccccc21)Nc1ccc(Br)cc1	inactive: 44.9%	
CCC(C)n1c(SCc2ccccc2)nc2ccsc2c1=O (stereo not drawn)	inactive: -0.11%	
O=C(O)c1ccc(N/N=C/c2cccc(F)c2)cc1		inconclusive: 39.8 µM [inhibitor, single point]
Cc1cc(C=C(C#N)C#N)c(C)n1-c1ccccc1	inactive: -0.642%	
COc1ccccc1NC(=O)c1oc2ccccc2c1NC(=O)Cc1ccccc1	inactive: 2.95%	
CCOC(=O)c1nc(Nc2ccc(C(=O)OC(C)C)cc2)c2ccccc2n1		inconclusive: 20 µM [activator, single point]
Cc1c(NC(=O)C(C)OC(=O)CNC(=O)c2ccccc2)c(=O)n(-c2ccccc2)n1C (stereo not drawn)		inconclusive: 15.8 µM [inhibitor, partial curve]
COc1cc(C(=O)NCCc2csc(-c3ccc(Cl)cc3)n2)cc(OC)c1OC		inconclusive: 31.6 µM [activator, single point]
Cc1c(CN2CCCCC2)c(O)n(CCCO)c(=O)c1C#N	inactive: -12%	
O[C@@H](c1cc([C@@]23C[C@H]4CC[C@@H]2C[C@H](C4)C3)nc2c(Cl)cc(Cl)cc12)C1CCCCN1 (stereo partly drawn)	inactive: 2.99%	
CCn1c(SCc2ccc(C#N)cc2)nnc1-c1ccc(S(=O)(=O)N2CCCCC2)cc1	inactive: 11.7%	
Cc1ccc(Nc2sc(C(=O)c3ccccc3)c(N)c2S(=O)(=O)c2ccccc2)cc1Cl		active: 3.98 µM
CC(C)C(NC(=O)c1ccccc1Cl)C(=O)OCc1nc2scc(-c3ccccc3Cl)c2c(=O)[nH]1 (stereo not drawn)		active: 25.1 µM
CCC(=O)N1CCc2cc(Br)cc(S(=O)(=O)N3CCCCCC3)c21		inconclusive: 39.8 µM [activator, single point]
COc1ccc(C2=CSC3=C(C(=O)c4cccc(S(=O)(=O)N(C)C)c4)CCN23)cc1		active: 25.1 µM
Cn1nnc2c(N3CCN(c4ccc(F)cc4)CC3)ncnc21		inconclusive: 31.6 µM [activator, single point]
O=C(/C=C/c1ccco1)NC(=S)Nc1ccc(O)c(-c2nc3ccccc3s2)c1		active: 7.94 µM
O=C(c1ccccc1)c1c2c(cc3sc4ccccc4[n+]13)-c1cccc3cccc-2c13		active: 25.1 µM
COc1ccc2[nH]c(=O)c(C(c3nnnn3C(C)(C)C)N(Cc3ccco3)CC3CCCO3)cc2c1 (stereo not drawn)		inconclusive: 31.6 µM [activator, single point]
Cc1ccc2nc3sc(C(=O)N4CCCc5ccccc54)c(N)c3cc2c1		inconclusive: 31.6 µM [inhibitor, partial curve, poor fit]
CCn1cc(C(=O)NCCc2ccc(OC)c(OC)c2)c(=O)c2cc(S(=O)(=O)N(C)C3CCCCC3)ccc21		inconclusive: 12.6 µM [activator, partial curve]

Compound	max response, negative = inhibition	Potency
COc1ccc(-c2noc(CN(C(=O)C(C)Oc3ccc(C)cc3)C(C)C)n2)cc1 (stereo not drawn)		inconclusive: 39.8 µM [activator, single point]
CC(=O)O[C@]1(C(C)=O)CC[C@H]2[C@@H]3C=C(Cl)C4=CC(=O)CC[C@]4(C)[C@H]3CC[C@@]21C		inconclusive: 39.8 µM [activator, single point]
CCCc1ccc(C(=O)NNC(=O)c2ccc(Br)cc2)cc1		inconclusive: 39.8 µM [inhibitor, single point]
O=C(NCc1ccccc1)c1ccc2c(c1)CCN2S(=O)(=O)c1ccc(Cl)cc1		inconclusive: 31.6 µM [inhibitor, single point]
CCCNC(=O)CNC(=S)N(Cc1cc(OC)c(OC)c(OC)c1)C1CCCC1		inconclusive: 25.1 µM [activator, partial curve]
CCn1cc(C(=O)NCc2ccccn2)c(=O)c2cc(S(=O)(=O)N3CCCCC3)ccc21		inconclusive: 31.6 µM [activator, single point]
CCc1ccc(NC(=O)CN2C(=O)CSc3ccc(S(=O)(=O)N(C)C)cc32)cc1		inconclusive: 39.8 µM [inhibitor, single point]
CC1CCCN(CCCNC(=O)c2ccc3c(c2)N(Cc2ccc(Cl)cc2)C(=O)c2ccccc2S3(=O)=O)C1 (stereo not drawn)		inconclusive: 31.6 µM [activator, single point]
CCOC(=O)c1cc([N+](=O)[O-])c([N+](=O)[O-])cc1NC(C)=O	inactive: 18.6%	
COc1cccc(NC(=O)c2ccc3c(c2)N(CC(=O)N2CCCCC2)C(=O)C(C)(C)O3)c1		inconclusive: 31.6 µM [activator, single point]
CC(C)(C)C1CCC(=NNC(=O)c2ccc(Br)o2)CC1 (stereo not drawn)	inactive: 6.4%	
COc1cc(C(=O)N2CCN(c3ncnc4sc(C)c(C)c34)CC2)cc(OC)c1OC		inconclusive: 39.8 µM [activator, single point]
CC1CCN(S(=O)(=O)c2ccc3c(c2)oc(=O)n3CC(=O)N2c3ccccc3CC2C)CC1 (stereo not drawn)		inconclusive: 25.1 µM [inhibitor, single point]
CCOC(=O)N1CCN(Cc2nc3cc(NC(=O)c4cccc(C)c4)ccc3n2C(C)C)CC1		inconclusive: 31.6 µM [activator, single point]
COc1ccc(C(=O)COC(=O)CN2CC(=O)Oc3ccccc32)cc1Br		inconclusive: 39.8 µM [inhibitor, single point]
CC(C)(COCC1CO1)COCC1CO1 (stereo not drawn)	inactive: -1.8%	
COc1ccccc1NC(=O)Cn1c(=O)c(CNc2ccccc2)cc2cc(OC)c(OC)cc21		inconclusive: 39.8 µM [activator, single point]
Cc1cccc(CNC(=O)c2ccc3c(c2)c(C)c(C)n3Cc2ccccc2)c1		inconclusive: 31.6 µM [inhibitor, single point]
Cc1cc(N2CCC(C(=O)N(CC(C)C)CC(C)C)CC2)n2nc(C)c(-c3ccc(Cl)cc3)c2n1	inactive: 4.33%	
Cc1csc(SCCn2c(N3CCN(c4ccccc4)CC3)nc3c2c(=O)[nH]c(=O)n3C)n1		inconclusive: 39.8 µM [activator, single point]
CCOc1ccc(NC(=O)CSc2oc(-c3ccccc3)nc2S(=O)(=O)c2ccc(Cl)cc2)cc1		inconclusive: 3.98 µM [inhibitor, single point]
